The values below come from publication PMC12136788.

To fix the notation:
T1: UNK ZnF1-6 (called full-length) (human, UniProt Q9C0B0 30-357)
T1 sequence: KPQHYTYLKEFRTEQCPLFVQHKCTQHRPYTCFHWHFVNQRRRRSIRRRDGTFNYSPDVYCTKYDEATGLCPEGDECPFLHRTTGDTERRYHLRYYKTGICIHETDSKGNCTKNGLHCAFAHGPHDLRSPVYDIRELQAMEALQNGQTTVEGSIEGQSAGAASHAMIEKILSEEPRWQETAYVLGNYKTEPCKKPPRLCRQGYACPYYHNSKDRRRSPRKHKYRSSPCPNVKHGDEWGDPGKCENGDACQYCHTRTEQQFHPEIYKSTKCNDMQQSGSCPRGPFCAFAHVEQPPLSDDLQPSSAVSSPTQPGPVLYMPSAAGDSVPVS

B1: chr8:25429562:25429664:-|3pUTR|ENSG00000104756|unk|FALSE|unique (ssRNA)
RNA: GGGAGUUCUACAGUCCGACGAUCAGAAAAGCACUCAUUUAAUAGAUGUAGGGAAACUAGAUAUUGCUGCCUUUUGAAUGGGGUAGGGGGGUUUACCUGGUUUUAUGACCAGGCAUAGUAUCUAUUAUAUUUGCUUUUAAAUAGCAACAGAGGAUUGAGCAUCA
B2: chr12:85264020:85264122:+|3pUTR|ENSG00000133640|unk|total|mutant (ssRNA)
RNA: GGGAGUUCUACAGUCCGACGAUCCACCGUAUUUCAGUUACUUUCCACAGCUGUGUUGCUCAAUAACCGCAUCCAGUGAACUUCCGUAUUUUUUUGUUUUUCCUGUAUUUUAUUAAAAUAUUUCAUCCCGAGAUAACUGAAGUGCAACAGAGGAUUGAGCAUCA
B3: ENSG00000107863:be:win_451|CDS|ENSG00000107863|bound_else_gene|NA|bound_elsewhere_windowed (ssRNA)
RNA: GGGAGUUCUACAGUCCGACGAUCUUGGAACUUAGUGUUAUGCCAAAAGAUGAAGACAUUCUCCAAGUGCUACAGUUUACAAAGGAUGUCACAGCACUGGCAUAUUCUCAAGAUGCCUACCUGAAAGGCAACGAAGCUUAUAGCCAACAGAGGAUUGAGCAUCA
B4: chr8:97725557:97725573:+|3pUTR|ENSG00000147649|msi1_unk|total|mutant (ssRNA)
RNA: GGGAGUUCUACAGUCCGACGAUCGUUGACUUUAAAAAUGAAAUCAUUCACAAACUUUUGGUAUAUGAUGGAGAAUGAAAAACCCGAGUCAGACAGCUUUAAUUGACAUUGUCAACACCUCCAGUUAUCAGGAAUACAUUUUUUCAACAGAGGAUUGAGCAUCA
B5: chr9:136477283:136477384:-|CDS|ENSG00000148396|msi1|FALSE|unique (ssRNA)
RNA: GGGAGUUCUACAGUCCGACGAUCGCCCCCGCAGGGUUUUCUCAGCACCCCGGUUUGCUUGUUCCUCACACACAUGCCAGAGAUAGCUCUCAGGGACCCUGUGAGCCCCUGCCUGGACCUCUGACACAGCCCAGAGCACAUGCCCAACAGAGGAUUGAGCAUCA
B6: chr1:31434308:31434366:+|3pUTR|ENSG00000168528|msi1_unk|FALSE|overlapping (ssRNA)
RNA: GGGAGUUCUACAGUCCGACGAUCGCCAGGCUGAGCCCCCACCCCUGCCCCAGCUCCAGGACCUGCCCCUGAGCCGGGCCUUCUAGUCGUAGUGCCUUCAGGGUCCGAGGAGCAUCAGGCUCCUGCAGAGCCCCAUCCCCCCGCCAACAGAGGAUUGAGCAUCA

The other results are listed elsewhere or left out.

The target in the experiment is T1, UNK ZnF1-6 (called full-length). Put plainly: nsRBNS (natural sequence RNA bind-n-seq); RBNS binding buffer (assumed for nsRBNS): 25 mM Tris pH 7.5, 150 mM KCl, 3 mM MgCl2, 0.01% Triton X-100, 500 ug/ml BSA, 20 U/ml SUPERase-In, 4 C; UNK is unkempt and MSI1 is Musashi-1; names of the RNAs are library labels; protein concentration not given here; high values mean tight binding.
Take B1: the binding signal amounted to 3.43 enrichment R.

With B2, the binding signal was 3.21 enrichment R.

B3 yielded a binding signal of 0.399 enrichment R.

B4 showed a binding signal of 0.642 enrichment R.

B5 returned a binding signal of 0.79 enrichment R.

In the case of B6, the binding signal came to 2.02 enrichment R.
